T1: UNK ZnF1-3 (human, UniProt Q9C0B0 31-174)
T1 sequence: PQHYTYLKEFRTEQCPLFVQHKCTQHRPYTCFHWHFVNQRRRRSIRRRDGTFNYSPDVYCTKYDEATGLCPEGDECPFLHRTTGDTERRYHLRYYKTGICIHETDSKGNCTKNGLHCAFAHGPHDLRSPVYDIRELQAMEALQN

B1: chr16:94664741:94664742:+_ENSMUSG00000040785_ENSMUST00000117648|mus_hu|mus_mus_mus_hu_False|8_8 (ssRNA)
RNA: GGGAGUUCUACAGUCCGACGAUCUGGUACUGAUCUUGGUAGCUGAUAUUCAGGAGAAAGGCUGGCCAAGGGUGUAUAUAUGCUGGUGUACUGGGGCAAACCUGGUAACACGUUUAUGUAUGCUGGCCGCUGGGUGAUGAUAUCCAACAGAGGAUUGAGCAUCA
B2: chr5:36862001:36862002:-_ENSMUSG00000029192_ENSMUST00000171385|mus_mus|FALSE|FALSE (ssRNA)
RNA: GGGAGUUCUACAGUCCGACGAUCAAUGGCCAAGCUCCAAACUUUGCCUCUUACACUCGGAGGGAUUCCCUGCCACCACAAGUCUCGAACCUUCUUAGAGCACCACAUGGUUUCCCAGUUAGGCAAGAUCUCAUUGUUCCAGGUCAACAGAGGAUUGAGCAUCA
B3: chr1:220276048:220276049:+_ENSG00000067704_ENST00000302637|hu_hu|hu_hu_hu_mus_True|18_98 (ssRNA)
RNA: GGGAGUUCUACAGUCCGACGAUCGCAAAUUGCCUGGUUGGCUGGAAUUGUCCAAGGCUGGGUGGUCCAAACUAAAACGCUAACAGGGGAUGAGGCAUCUGUAAGAGACUCCAACUUUGGAGAAGGCCUCAGGAGGGGGAAUCUCAACAGAGGAUUGAGCAUCA
B4: chr7:138035701:138035702:+_ENSMUSG00000040268_ENSMUST00000120441|mus_hu|FALSE|FALSE (ssRNA)
RNA: GGGAGUUCUACAGUCCGACGAUCUCCUGCAUUCAUAACAAAACAGAACUCCGCCUUUGGCCUUAGCUUAGUAGCAUCGCUAACCUUUGAAAUGUAGGUAAGCUUAAUGGCUCCAACACGUGAUGAUCCAGAAGGUAGGUUCUGCAACAGAGGAUUGAGCAUCA
B5: chr14:78183846:78183847:+_ENSG00000119705_ENST00000557342|hu_hu|FALSE|FALSE (ssRNA)
RNA: GGGAGUUCUACAGUCCGACGAUCGCAGUCUCAAAAAUCUUUCUUUUCAUCAUCAGAUGUUUGCGGAAGUUUUGGCCUUCUAGUGUGAACCUGGACCUUUACUCCAUCUAUAAUAUGAUUUUCCUGUUGUAGUGCAUUCCGAAGCAACAGAGGAUUGAGCAUCA
B6: 112505324_112505444_1859_3pUTR_ENSMUSG00000032727_ENSMUST00000109272|mouse|control|control (ssRNA)
RNA: GGGAGUUCUACAGUCCGACGAUCGGUUCAAACUUCCAGUGAAAGACUAUGCAAACCUGAUAGCUCCCCUUCAGUUUACUGGUACUGCAUACCCAUUGUCUCUGGGCUUCCCGUUCCCAUCACUCUGAAUGAAGGGCGGCGUGCCAACAGAGGAUUGAGCAUCA

The list shows a part of the results.

For this experiment, the target named is T1, UNK ZnF1-3. Nature of the experiment: nsRBNS (natural sequence RNA bind-n-seq); RBNS binding buffer (assumed for nsRBNS): 25 mM Tris pH 7.5, 150 mM KCl, 3 mM MgCl2, 0.01% Triton X-100, 500 ug/ml BSA, 20 U/ml SUPERase-In, 4 C; UNK is unkempt and MSI1 is Musashi-1; names of the RNAs are library labels; protein concentration not given here; high values mean tight binding.
Regarding B1, the binding signal was 1.01 enrichment R.

B2: the binding signal came to 1.2 enrichment R.

Molecule B3 gave a binding signal of 1.73 enrichment R.

As for B4, the binding signal was 0.773 enrichment R.

As for B5, the binding signal worked out at 0.659 enrichment R.

With B6, the binding signal was 0.671 enrichment R.

The values are drawn from paper PMC12136788.
